# Test results: the antibiotic and cytotoxicity screens of Wong et al. (2023)
# The list shows a part of the results.
# Columns and labels:
# HSkMC = human skeletal muscle cells; assay: cytotoxicity call (relative viability < 0.9); settings: 10 µM
# HepG2 = assay: cytotoxicity call (relative viability < 0.9); settings: 10 µM
# S. aureus RN4220 = assay: growth inhibition call (relative growth <= 0.2); settings: 50 µM
SMILES,cytotoxicity call (HSkMC),cytotoxicity call (HepG2),growth inhibition call (S. aureus RN4220)
CCN(CC)c1ccc(N2CC=C[C@@]34O[C@@H]5C=CCCOC(=O)[C@@H]5[C@H]3C(=O)N([C@@H](C)CO)[C@@H]4C2=O)cc1,inactive,inactive,inactive
C[C@@H]1CN([C@@H](C)CO)C(=O)c2cc(NC(=O)c3ccccc3)ccc2O[C@@H](C)CCCCO[C@@H]1CN(C)Cc1ccc2c(c1)OCO2,inactive,inactive,inactive
Cc1noc(C)c1NC(=O)Nc1ccc2c(c1)CC(=O)N([C@H](C)CO)C[C@@H](C)[C@H](CN(C)C(=O)Nc1ccc(C(F)(F)F)cc1)O2,inactive,inactive,inactive
C[C@H]1CN([C@@H](C)CO)C(=O)Cc2cc(NS(=O)(=O)c3cccs3)ccc2O[C@H]1CN(C)S(=O)(=O)c1ccccc1,inactive,inactive,inactive
C[C@@H]1CN([C@H](C)CO)C(=O)c2cc(NC(=O)C3CC3)ccc2O[C@@H]1CN(C)Cc1ccc2c(c1)OCO2,inactive,inactive,inactive
CC(C)=CCCC(C)CC=O (centres undefined),inactive,inactive,inactive
C[C@@H]1CCCCO[C@H](CN(C)Cc2ccc(C(F)(F)F)cc2)[C@H](C)CN([C@H](C)CO)C(=O)c2cc(NC(=O)NC3CCCCC3)ccc2O1,active,active,inactive
C[C@@H]1CN([C@H](C)CO)C(=O)c2ccccc2-c2ccccc2CO[C@H]1CN(C)C(=O)Nc1cccc(F)c1,inactive,inactive,inactive
C[C@@H]1CCCCO[C@H](CN(C)Cc2ccccc2)[C@@H](C)CN([C@H](C)CO)C(=O)c2cc(NC(=O)Cc3ccccc3)ccc2O1,inactive,inactive,inactive
O=C(CN1CCOCC1)NCC[C@H]1CC[C@@H](NS(=O)(=O)c2ccc(Cl)cc2)[C@@H](CO)O1,inactive,inactive,inactive
C[C@@H]1C(=O)O[C@@H]2C[C@@](C)(O)[C@H]3C[C@H]4O[C@@]4(C)[C@@]3(O)C(=O)[C@@H]12,inactive,inactive,inactive
COc1ccc(S(=O)(=O)Nc2ccc3c(c2)C(=O)N([C@@H](C)CO)C[C@@H](C)[C@H](CN(C)S(C)(=O)=O)OCCCC[C@@H](C)O3)cc1,inactive,inactive,inactive
COc1cccc(CNC(=O)c2cc3c(c(-c4cccc(-c5ccc(C#N)cc5)c4)n2)[C@@H](CCO)N([S@](=O)C(C)(C)C)C3)c1,active,inactive,inactive
COc1ccc(NC(=O)N(C)C[C@H]2OCCCC[C@H](C)Oc3ccc(NC(=O)Nc4cccc5ccccc45)cc3C(=O)N([C@@H](C)CO)C[C@H]2C)cc1,inactive,inactive,inactive
C[C@H]1CCCCO[C@@H](CN(C)C(=O)C2CCCCC2)[C@@H](C)CN([C@@H](C)CO)C(=O)c2cc(NC(=O)Cc3ccccc3)ccc2O1,inactive,inactive,inactive
C[C@@H]1CN([C@@H](C)CO)C(=O)c2cc(NS(=O)(=O)c3ccccc3)ccc2O[C@@H](C)CCCCO[C@@H]1CN(C)C(=O)Nc1cccc2ccccc12,inactive,inactive,inactive
C[C@@H]1CCCCO[C@H](CN(C)C(=O)Nc2cccc3ccccc23)[C@@H](C)CN([C@@H](C)CO)C(=O)c2cc(NC(=O)c3ccncc3)ccc2O1,active,active,inactive
Cc1cccc(S(=O)(=O)N2C[C@H](O)COC[C@@H]3O[C@H](CC(=O)NCc4ccc5c(c4)OCO5)CC[C@H]32)c1,inactive,inactive,inactive
C[C@@H]1CCCCO[C@@H](CN(C)CC2CCCCC2)[C@H](C)CN([C@H](C)CO)C(=O)c2cc(NC(=O)C3CCCCC3)ccc2O1,inactive,inactive,inactive
COC(=O)c1c2oc(c1C(=O)OC)C(=O)N[C@H](Cc1ccccc1)Cn1cc(nn1)[C@@H](Cc1ccccc1)NC(=O)N[C@H](COC(=O)NCCCCCC(=O)NO)CC2,inactive,inactive,inactive
O=C(O)[C@@H]1[O][Sb]2([OH])([O][Sb]34([OH])[O][C@H]([C@H](O)CO)[C@H]([O]3)[C@H](C(=O)O)[O]4)[O][C@H]([C@H](O)CO)[C@@H]1[O]2,inactive,inactive,inactive
Cl.O=C1NCC2(CCN(CCc3ccccc3)CC2)O1,inactive,inactive,inactive
CCn1nnc2c1CCN(S(=O)(=O)c1cn(C)cn1)[C@@H]2COC,inactive,inactive,inactive
C[C@H](CO)N1C[C@H](C)[C@H](CN(C)S(=O)(=O)c2cccs2)Oc2c(NC(=O)C3CCOCC3)cccc2C1=O,inactive,inactive,inactive
C[C@H](CO)N1C[C@H](C)[C@H](CN(C)CC2CCCCC2)OCCCC[C@H](C)Oc2ccc(NC(=O)c3ccncc3)cc2C1=O,inactive,inactive,inactive
C[C@@H]1CN([C@@H](C)CO)C(=O)c2cc(NC(=O)Nc3ccccc3)ccc2O[C@@H](C)CCCCO[C@@H]1CN(C)Cc1ccc(C(F)(F)F)cc1,inactive,active,inactive
COc1ccc2c3c([nH]c2c1)[C@@H](CO)N(C[C@]13CN(C1)S(=O)(=O)c1cccs1)C(=O)c1ccccc1,inactive,inactive,inactive

SMILES,cytotoxicity call (HSkMC),cytotoxicity call (HepG2),growth inhibition call (S. aureus RN4220)
CCCNC(=O)[C@@H]1[C@@H](CO)[C@@H]2Cn3c(ccc(-c4ccccc4OC)c3=O)[C@@H]2N1S(C)(=O)=O,inactive,inactive,inactive
COc1ccc(S(=O)(=O)Nc2ccc3c(c2)CC(=O)N([C@@H](C)CO)C[C@H](C)[C@H](CN(C)Cc2ccc(-c4ccccc4)cc2)O3)cc1,active,active,inactive
CN1C(=O)c2cc(NS(C)(=O)=O)ccc2OC[C@@H]2O[C@@H](CC(=O)N3CCOCC3)CC[C@@H]21,inactive,inactive,inactive
CCCNC(=O)N(C)C[C@@H]1Oc2cc(C#Cc3cccc(F)c3)ccc2S(=O)(=O)N([C@@H](C)CO)C[C@H]1C,inactive,inactive,inactive
C[C@@H]1CN([C@@H](C)CO)C(=O)c2cc(NS(=O)(=O)c3cccs3)ccc2O[C@@H]1CN(C)S(=O)(=O)c1cn(C)cn1,inactive,inactive,inactive
C[C@H]1CN([C@@H](C)CO)C(=O)c2cc(NC(=O)Cc3ccccc3)ccc2O[C@@H]1CN(C)C(=O)Nc1cccc2ccccc12,inactive,inactive,inactive
Cc1noc(C)c1NC(=O)N(C)C[C@@H]1OCCCC[C@@H](C)Oc2ccc(NC(=O)CCC(F)(F)F)cc2C(=O)N([C@H](C)CO)C[C@H]1C,inactive,inactive,inactive
C[C@H](CO)N1C[C@H](C)[C@H](CN(C)C(=O)Nc2ccc(C(F)(F)F)cc2)OCCCC[C@H](C)Oc2ccc(NC(=O)Nc3ccc(F)cc3)cc2C1=O,inactive,inactive,inactive
O=C(C[C@H]1CC[C@@H]2[C@H](COC[C@H](O)CN2C(=O)c2cnccn2)O1)NCc1ccc(Oc2ccccc2)cc1,inactive,inactive,inactive
COC(=O)C1=C(C)NC(C)=C(C(=O)OCCN2CCN(C(c3ccccc3)c3ccccc3)CC2)C1c1cccc([N+](=O)[O-])c1 (centres undefined),inactive,active,inactive
COc1cc(C(=O)N2CCN(CCN3C(=O)c4cccc5cccc(c45)C3=O)CC2)cc(OC)c1OC,inactive,inactive,inactive
COc1ccc(CN(C)C[C@@H]2OCCCC[C@H](C)Oc3ccc(NS(=O)(=O)c4ccccc4)cc3C(=O)N([C@@H](C)CO)C[C@@H]2C)cc1,inactive,inactive,inactive
COc1ccc(NC(=O)Nc2ccc3c(c2)C(=O)N([C@H](C)CO)C[C@@H](C)[C@H](CN(C)Cc2ccc(Cl)c(Cl)c2)OCCCC[C@H](C)O3)cc1,active,inactive,inactive
C[C@]1(O)CC[C@@H]2C(C(=O)O)=CO[C@@H](O[C@@H]3O[C@H](COC(=O)/C=C/c4ccc(O)c(O)c4)[C@@H](O)[C@H](O)[C@H]3O)[C@@H]21,inactive,inactive,inactive
O=C(C[C@@H]1CC[C@@H]2[C@H](COC[C@@H](O)CN2S(=O)(=O)c2ccc(Cl)cc2)O1)NCCN1CCCCC1,inactive,inactive,inactive
CC(C)NC(=O)Nc1ccc2c(c1)C(=O)N([C@H](C)CO)C[C@H](C)[C@@H](CN(C)S(=O)(=O)c1ccc(Cl)cc1)O2,inactive,inactive,inactive
C[C@H](CO)N1C[C@H](C)[C@H](CN(C)C(=O)Nc2ccc3c(c2)OCO3)OCCCC[C@H](C)Oc2ccc(NC(=O)Cc3ccccc3)cc2C1=O,inactive,inactive,inactive
C[C@H](CO)N1C[C@H](C)[C@H](CN(C)S(=O)(=O)c2ccc(Cl)cc2)Oc2c(NS(=O)(=O)c3cn(C)cn3)cccc2C1=O,inactive,inactive,inactive
COc1ccc(C(=O)CO)cc1,inactive,inactive,inactive
CC(C)C(=O)Nc1ccc([N+](=O)[O-])c(C(F)(F)F)c1,inactive,active,inactive
O=c1[nH]c2ccsc2c(=O)n1CCO,inactive,inactive,inactive
Cc1noc(C)c1NC(=O)Nc1ccc2c(c1)C(=O)N([C@@H](C)CO)C[C@H](C)[C@H](CN(C)CC1CCCCC1)OCCCC[C@@H](C)O2,inactive,inactive,inactive
Cc1ccc(S(=O)(=O)Nc2ccc3c(c2)CC(=O)N([C@H](C)CO)C[C@@H](C)[C@H](CN(C)Cc2ccncc2)O3)cc1,inactive,inactive,inactive
COc1ccc2c3c([nH]c2c1)[C@@H](CO)N(C[C@]13CN(Cc2cc(on2)-c2ccccc2)C1)C(=O)Nc1ccc(cc1)F,inactive,inactive,inactive
COc1ccc(S(=O)(=O)Nc2ccc3c(c2)C(=O)N([C@@H](C)CO)C[C@@H](C)[C@@H](CN(C)S(C)(=O)=O)OCCCC[C@@H](C)O3)cc1,inactive,inactive,inactive
C[C@H]1CN([C@@H](C)CO)C(=O)Cc2cc(NC(=O)Cc3ccccc3)ccc2O[C@@H]1CN(C)C(=O)Nc1cccc2ccccc12,inactive,inactive,inactive
